Source: the RNAGym collection of RNA variant scans (doi:10.1101/gad.245936.114)
This sample is rich in variants without activity.

B1: tRNA (parent)
chain: CUCUCGGUAGCCAAGUUGGUUUAAGGCGCAAGACUUUAAUUUAUCACUACGAAAUCUUGAGAUCGGGCGUUCGACUCGCCCCCGGGAGAUUUUUUCCUCGAGCAA

Variants of: B1
Experiment: nonsense suppression (GFP-seq) (ratio to wild type); higher = more function; SUP4oc tRNA, yeast GFP reporter sort-seq
Outline: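 Sorted GFP/RFP bins of yeast were each Illumina-sequenced with a phred ≥30 cutoff; the cells held a genome-integrated ochre-suppressor tRNA variant from a library with ~3% random mutations, a galactose-driven GFP ochre reporter, and RFP. Culture was in raffinose/galactose medium containing 80 mg/L adenine. Nonsense suppression, termed GFPSEQ, is the median GFP/RFP of the bins weighted by each variant's estimated cell share per bin, relative to the unmutated parent tRNA, for variants reaching ≥100 reads and ≥30 cells.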

Variant | nonsense suppression
G73C G86A | ≤ 0.026
G73C G88U | ≤ 0.026
G73C U76A | ≤ 0.026
G73C U76C | ≤ 0.026
G73C U76C G86U | ≤ 0.026
G73C U76G | ≤ 0.026
G73U A74C C77G | ≤ 0.026
G73U C75U G78C C81G | ≤ 0.026
G73U C77U | ≤ 0.026
G73U C81G | ≤ 0.026
G73U C82U | ≤ 0.026
G73U G86A | ≤ 0.026
G73U U76A | ≤ 0.026
A74C A87G | ≤ 0.026
A74C A87U | ≤ 0.026
A74C C81G | ≤ 0.026
A74C G85C | ≤ 0.026
A74G C79G A89U | ≤ 0.026
A74G C80A | ≤ 0.026
A74G C80U | ≤ 0.026
A74G C82A | ≤ 0.026
A74G G78C G86C | ≤ 0.026
A74G G78U | 0.0279
A74G G84C | ≤ 0.026
A74G G84U | ≤ 0.026

Variant | nonsense suppression
A74G U76G | ≤ 0.026
A74U A87G | ≤ 0.026
A74U C80A | ≤ 0.026
A74U C80G C83U G86C | ≤ 0.026
A74U G78A | 0.0557
A74U G84A | ≤ 0.026
A74U G84C | ≤ 0.026
A74U G84C G85C | ≤ 0.026
A74U G86A | ≤ 0.026
C75A A87U | ≤ 0.026
C75A C77A | ≤ 0.026
C75A C79U | 1.21
C75A C82A | 0.217
C75A G78C | 1
C75A G85A | 1.05
C75G C77A | ≤ 0.026
C75G C77G | ≤ 0.026
C75G C80A | ≤ 0.026
C75G G78C | 0.361
C75G G86A A87C | ≤ 0.026
C75G G88U | ≤ 0.026
C75U C81G A89G | ≤ 0.026
C75U C82A C83G | ≤ 0.026
C75U G84A | ≤ 0.026
C75U G85U | 1.12

Variant | nonsense suppression
U76A A87G | 0.0534
U76A A87U | ≤ 0.026
U76A C77A | ≤ 0.026
U76A C77U G88U | ≤ 0.026
U76A C79A | ≤ 0.026
U76A C80G | ≤ 0.026
U76A C83G | ≤ 0.026
U76A G78C | ≤ 0.026
U76A G84C A89U | ≤ 0.026
U76A G88C | ≤ 0.026
U76C A89U | ≤ 0.026
U76C G78A | 0.0382
U76C G78A C80G | ≤ 0.026
U76C G78U | 0.0507
U76C G86C | ≤ 0.026
U76G A87C | ≤ 0.026
U76G C77G | ≤ 0.026
U76G C79G G88A | ≤ 0.026
U76G C80G | ≤ 0.026
U76G C82U | ≤ 0.026
U76G C83A G88A | ≤ 0.026
U76G G78U | ≤ 0.026
U76G G78U G86A | ≤ 0.026
U76G G84A | ≤ 0.026
U76G G85U | ≤ 0.026

Variant | nonsense suppression
U76G G88A | ≤ 0.026
C77G C82G G86C | ≤ 0.026
C77G G78C | ≤ 0.026
C77G G85A | ≤ 0.026
C77G G88U | ≤ 0.026
C77U A87C | ≤ 0.026
C77U A87U | ≤ 0.026
C77U C81G G85A | ≤ 0.026
C77U C82G | ≤ 0.026
C77U G86A | ≤ 0.026
G78A A87C | 0.032
G78A A87G | 0.294
G78A C79U | ≤ 0.026
G78A C80G C81U | ≤ 0.026
G78A C81G | 0.0732
G78A C81U A89G | ≤ 0.026
G78A C81U G88A | ≤ 0.026
G78A G86A G88C | ≤ 0.026
G78A G88C | 0.0845
G78C C79G | ≤ 0.026
G78C G84A | ≤ 0.026
G78C G88C | ≤ 0.026
G78U C79A | ≤ 0.026
G78U C83A G88U | ≤ 0.026
G78U G85C | 0.0488

Variant | nonsense suppression
C79A G85C | ≤ 0.026
C79A G86C | ≤ 0.026
C79G C82A | ≤ 0.026
C79G G85A | ≤ 0.026
C79G G86C | ≤ 0.026
C79U C82G G86U | ≤ 0.026
C79U G88C | ≤ 0.026
C80A C83U | ≤ 0.026
C80A G86A | ≤ 0.026
C80A G88C | ≤ 0.026
C80G A87U G88C | ≤ 0.026
C80G C83G | ≤ 0.026
C80G G84A | ≤ 0.026
C80G G84C G88A | ≤ 0.026
C80G G88A | ≤ 0.026
C80U C81A G84A G85C | ≤ 0.026
C80U G86A | ≤ 0.026
C80U G86U | ≤ 0.026
C80U G88A | 0.0263
C81A A89G | ≤ 0.026
C81A G85U | ≤ 0.026
C81A G86A | ≤ 0.026
C81G A87U | ≤ 0.026
C81G A89U | ≤ 0.026
C81G C82G | ≤ 0.026

Variant | nonsense suppression
C81G G85C A89G | ≤ 0.026
C81U A87G | 0.239
C81U G84U | 0.065
C82A A89G | ≤ 0.026
C82A C83A | ≤ 0.026
C82A C83U | ≤ 0.026
C82A G85U | 0.0445
C82G A87G | ≤ 0.026
C82G C83G | ≤ 0.026
C82G G88C | ≤ 0.026
C82U C83U | ≤ 0.026
C82U G88U | ≤ 0.026
C83A | ≤ 0.026
C83A G86U | ≤ 0.026
C83A G88A | ≤ 0.026
C83G | ≤ 0.026
C83G A87C G88C | ≤ 0.026
C83G G84C | ≤ 0.026
C83U | 0.535
C83U A87U | ≤ 0.026
G84A | ≤ 0.026
G84A A87G | 0.157
G84A A89G | ≤ 0.026
G84A G86A | ≤ 0.026
G84A G86C | ≤ 0.026

Variant | nonsense suppression
G84A G86U | ≤ 0.026
G84A G88A | ≤ 0.026
G84A G88U | ≤ 0.026
G84C | ≤ 0.026
G84C A87C | ≤ 0.026
G84C G85C G88C | ≤ 0.026
G84C G86U | ≤ 0.026
G84C G88C | ≤ 0.026
G84C G88U | ≤ 0.026
G84U | ≤ 0.026
G84U A89G | ≤ 0.026
G85A A87U | 0.19
G85A A89U | ≤ 0.026
G85C A87U | ≤ 0.026
G85U G86U | ≤ 0.026
G85U G88C | ≤ 0.026
G86A | ≤ 0.026
G86C | ≤ 0.026
G86U | ≤ 0.026
G86U A87C | ≤ 0.026
G86U G88C | ≤ 0.026
A87C G88U | ≤ 0.026
A87G A89C | ≤ 0.026
G88C A89G | ≤ 0.026
G88C A89U | ≤ 0.026
